# According to the supplement of paper PMC12217912:
# This is one part of the list. The full chains were built here from the parent and the listed change. Inactive controls read about 0.05.
# B1: TEV protease; numbered along this chain (parent)
# chain: MGESLFKGPRDYNPISSSICHLTNESDGHTTSLYGIGFGPFIITNKHLFRRNNGTLVVQSLHGVFKVKDTTTLQQHLVDGRDMIIIRMPKDFPPFPQKLKFREPQREERICLVTTNFQTKSMSSMVSDTSCTFPSGDGIFWKHWIQTKDGQCGSPLVSTRDGFIVGIHSASNFTNTNNYFTSVPKNFMELLTNQEAQQWVSGWRLNADSVLWGGHKVFMVKPEEPFQPVKEATQL
# Variants of: B1
# Experiment: raw area under fraction-flipped curve 0-4 h after induction (AUC4h, not background-subtracted), DNA-recorder readout of cleavage of the substrate (dimensionless); higher = more cleavage of the substrate by the protease variant
# Conditions: temperature: 34 °C; time window: 0-4 h after rhamnose induction
# Description: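 In vivo DNA recorder in E. coli TOP10(DE3) ΔrhaA at 34 °C. Each TEVp single-site mutant (parent TEVp 0) is paired with a single-site variant of the 7-mer TEVs (canonical ENLYFQ|S). The substrate sits between flexible linkers in a Bxb1-sfGFP-TEVs-SsrA fusion, so cleavage stabilises Bxb1 and speeds flipping of a recombination array, read by NGS. The value is the raw area under the fraction-flipped curve over 0-4 h after rhamnose induction (AUC4h), with ≥20 reads per time point. It is not background-subtracted; inactive controls average about 0.047.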
# 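Further: Bxb1 expression induced with 0.2% (w/v) L-rhamnose at OD600 near 0.5, cultures sampled hourly, flipped fraction per protease–substrate barcode pair counted by paired-end Illumina sequencing.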
Variant,area with substrate ENLYAQS,area with substrate ENLYCQS,area with substrate ENLYDQS,area with substrate ENLYEQS,area with substrate ENLYHQS,area with substrate ENLYKQS,area with substrate ENLYLQS,area with substrate ENLYMQS,area with substrate ENLYNQS,area with substrate ENLYPQS,area with substrate ENLYQQS,area with substrate ENLYSQS,area with substrate ENLYTQS,area with substrate ENLYWQS,area with substrate ENLYYQS,area with substrate ENLYGQS,area with substrate ENLYIQS,area with substrate ENLYRQS,area with substrate ENLYVQS
S123E,0.0837,0.141,0.0741,0.064,0.0641,0.0731,0.0729,0.0913,0.069,0.0773,0.0598,0.0725,0.071,0.0862,0.0652,–,–,–,–
S154R,0.0569,–,0.0617,0.0623,0.0588,0.0739,0.059,0.0646,0.0503,0.062,0.0499,0.0725,0.077,0.0416,0.0494,0.0629,0.0771,0.0325,0.0857
Q198D,0.0588,–,0.0487,0.0954,0.0794,–,–,0.0912,0.0585,0.0708,0.0629,0.086,–,–,0.0687,0.0771,0.146,–,–
R10Q,0.06,–,0.0516,0.0677,0.0618,0.0748,0.0711,–,0.0616,0.0851,0.0894,–,0.077,0.0755,–,0.0637,0.137,–,0.114
R10E,0.05,–,0.0681,0.0627,0.0751,0.0619,–,0.0868,0.0511,0.0803,0.0533,0.064,0.0927,0.0718,0.0591,0.0623,0.111,0.0582,0.103
R10H,0.0811,–,0.0658,0.0689,0.0622,0.0664,0.0725,0.0854,–,0.0663,0.0654,–,0.066,0.0892,–,0.0777,0.116,0.0563,–
I43G,0.0415,0.0444,0.0359,0.0566,–,0.0473,–,0.0475,0.0527,–,0.0342,0.061,–,0.0464,0.0439,–,0.0411,0.0502,0.0413
F38T,0.0562,–,0.0488,0.0596,0.0643,0.0345,–,0.0717,0.058,0.0587,0.0575,0.0586,0.0443,0.0725,–,0.0765,0.0834,0.0532,0.0962
V210Q,0.124,0.0887,0.0802,0.0833,0.0653,0.044,–,0.078,0.0581,0.0541,0.0635,–,0.0696,0.0675,0.0795,0.058,0.115,0.0632,–
N52K,0.052,–,0.0616,–,0.0498,0.0338,–,0.054,0.0589,0.0638,0.0622,–,0.0739,0.0552,0.054,0.0523,0.108,0.0604,–
F6Y,0.0805,–,–,0.04,–,0.0277,0.066,0.047,0.084,0.0656,0.073,–,0.0526,–,–,–,–,–,–
P9K,0.0705,–,0.0697,–,–,0.0606,–,0.0851,–,–,0.0519,–,–,0.0848,–,0.072,–,–,0.0905
I139W,0.0572,–,0.0539,0.002,0.0601,0.0532,–,0.0672,0.0488,0.0676,–,0.0677,0.0676,–,0.0563,0.0604,0.0612,–,–
T70H,0.0619,–,–,0.0564,0.0644,0.0563,–,0.0666,0.0507,0.0589,–,–,–,–,–,–,–,0.0561,–
T70Q,0.0552,0.0756,0.0529,–,0.0608,0.0622,–,–,–,0.0715,0.0392,0.0727,–,–,–,–,0.116,–,0.0878
T31S,0.0612,–,0.0756,0.0575,0.0548,0.0623,0.0777,0.0943,0.0624,0.0901,0.11,0.0604,0.0755,0.0868,–,0.058,0.133,0.0643,0.132
F133C,0.0708,0.0816,0.059,0.0711,0.083,0.0416,–,–,0.0688,–,0.0481,–,–,–,–,0.0725,0.134,–,0.124
D82G,0.0462,0.0408,0.045,0.048,0.0773,0.0692,0.0835,–,0.0381,0.0595,0.0649,0.0545,–,–,–,–,–,–,0.0617
T115F,0.0728,–,–,0.0681,0.0662,0.0759,–,0.0727,–,0.0561,–,0.089,0.0687,–,0.0662,0.0723,–,–,–
S182K,0.064,–,0.0587,0.0595,0.0502,–,–,0.0632,0.0622,0.0636,0.0539,0.0586,0.0745,0.0729,–,0.0615,–,0.0522,0.0024
T55F,0.0714,–,0.0585,0.0687,0.0719,0.0514,–,–,0.0848,0.0766,–,–,–,0.0611,0.0864,0.0571,0.122,–,0.113
N175E,0.0563,–,0.0439,–,0.051,–,–,0.0732,–,–,0.0529,0.0663,–,–,0.0655,0.0467,–,–,0.0682
N45R,0.0589,–,0.0613,0.0713,0.057,0.0361,0.0637,0.0558,0.0618,0.0449,0.0877,0.0653,0.0498,0.045,–,0.0633,0.0513,0.0654,0.0577
N45C,0.0738,0.0828,0.0556,0.0514,0.0773,0.0782,–,0.107,0.0621,0.0903,–,0.0798,0.0693,0.0749,0.0737,0.07,–,0.0739,0.0856
L77W,0.0747,0.0555,0.0521,0.0497,0.0582,0.06,–,0.0578,0.0572,–,–,–,0.065,–,–,0.0684,–,–,0.0859
L22N,0.0544,–,0.045,0.0702,0.0525,0.0386,–,0.0623,0.0477,0.0441,0.0444,–,0.0501,0.034,–,0.0436,0.0477,0.0474,–
M188W,0.0797,0.0792,0.0708,0.0866,0.0857,0.0645,–,0.0778,0.0668,0.0809,0.0403,0.076,0.0694,0.0494,0.0494,–,0.0901,0.0444,0.096
